The text below walks through data of PubChem BioAssay AID485344 (National Center for Advancing Translational Sciences (NCATS), 2010).

Out of some 340,000 compounds screened, about 6,900 (2%) were called active. No stated cut-off is given here; in the data, active means inhibition above about 30%; inactive means below that, where a call was filed. The entries are a selection whose mix differs from that of the whole data set. Entries without a call were filed so in the source.

The target in this assay is D(2) dopamine receptor (Homo sapiens) (UniProt P14416). Description: HTS Assay for Allosteric Antagonists of the Human D2 Dopamine Receptor: Primary Screen for Antagonists. Further: 0% is about no effect. Particulars: HEK293 TREx D2 cells, calcium flux, dopamine EC80; at 10 µM; stronger effect = higher value. A digest of the protocol: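 In this primary screen, negative modulation is detected by tracking calcium flux after an EC80 dopamine challenge in inducible HEK293 T-REx D2 cells preexposed to test compound for 180 s.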
Sequence of UniProt P14416 (P14416 whole entry, looked up): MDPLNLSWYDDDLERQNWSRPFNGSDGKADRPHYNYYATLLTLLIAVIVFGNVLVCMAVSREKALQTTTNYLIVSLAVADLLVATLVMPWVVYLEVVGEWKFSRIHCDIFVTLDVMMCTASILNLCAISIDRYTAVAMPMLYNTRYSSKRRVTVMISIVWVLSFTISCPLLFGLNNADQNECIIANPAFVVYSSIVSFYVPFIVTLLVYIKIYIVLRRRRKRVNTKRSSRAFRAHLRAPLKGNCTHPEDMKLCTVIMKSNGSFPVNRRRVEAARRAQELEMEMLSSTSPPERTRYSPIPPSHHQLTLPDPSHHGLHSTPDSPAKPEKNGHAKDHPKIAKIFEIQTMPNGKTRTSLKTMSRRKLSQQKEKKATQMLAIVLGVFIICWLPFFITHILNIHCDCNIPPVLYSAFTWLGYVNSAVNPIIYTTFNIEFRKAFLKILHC
For the molecule `CCOc1ccc(NC(=O)c2cc(OC)nc3ccccc23)cc1`, the inhibition was active: 56.9%.

Regarding `CCOc1ccc(NC(=O)c2ccc3c(c2)CCN3S(=O)(=O)CC)cc1`, the inhibition was 8.68%.

On to `O=C(CC1C(=O)N(c2ccccc2)C(=O)N1Cc1ccc(F)cc1)Nc1cccc(F)c1` (configuration not stated), for which the inhibition is -13.7%.

Take `COc1ccc(-c2cn3cccnc3n2)cc1NC(=O)Nc1ccc(Cl)cc1`: the inhibition was -5.88%.

Turning to `Cc1ccc(C(=O)c2oc3ccccc3c2NC(=O)COc2ccc(C(C)C)cc2)cc1`, the inhibition amounted to 10.9%.

With `CCn1cc(C(=O)N[C@@H](C)C(=O)OC)c(=O)c2cc3c(cc21)OCO3`, the inhibition was active: 44.4%.

For the molecule `O=C(Nc1ccc(S(=O)(=O)Nc2ncccn2)cc1)c1cc(=O)c2ccccc2o1`, the inhibition came to 8.89%.

As for `Cc1sc2c(c1C)c(=O)n(Cc1ccccc1)c(=O)n2Cc1ccc(F)cc1`, the inhibition is -3.8%.

On to `COc1ccc(NC(=O)c2c(-c3ccccc3)c(-c3ccccc3)nn(C)c2=O)cc1OC`, for which the inhibition is 15.5%.

Turning to `Cc1cccc(-n2ncc3c(Nc4ccc(C)c(Cl)c4)ncnc32)c1`, the inhibition is 9.32%.

Turning to `Cc1ccc(C)c(Cn2c(=O)n(C(C)C)c(=O)c3oc4ccccc4c32)c1`, the inhibition is -1.01%.

For `Cc1ccccc1NC(=O)CCS(=O)(=O)c1cc(Br)cc2c1N(C(=O)C1CC1)CC2`, the inhibition is 13.2%.

Take `CCc1nn(CC(=O)N2CCCCC2)c(=O)c2cc3sc(C)cc3n12`: the inhibition is -3.16%.

Take `Cc1ccccc1CNC(=O)CN1C(=O)C2CCCCN2c2ccc(C(=O)N3CCCC3)cc21` (configuration not stated): the inhibition came to 1.46%.

`O=C(Nc1ccc2c(c1)N(C1CCCC1)C(=O)c1ccccc1S2)c1ccccc1F`: the inhibition was determined as 0.363%.

For `CC1CC(C)CN(CCOc2ccccc2-c2ccccc2)C1` (configuration not stated), the inhibition is active: 78.8%.

For `CCOC(=O)c1cccc(NC(=O)C2Cc3ccccc3N2C(=O)c2ccccc2)c1` (configuration not stated), the inhibition is -1.54%.

Turning to `CCOc1ccc(C(=O)NC2CC(=O)N(c3ccc(C)cc3)C2)cc1OCC` (configuration not stated), the inhibition is 13.8%.

`Cc1ccc(-c2nc(NC(=O)CSc3nc(C)nc4sc5c(c34)CCCC5)ns2)cc1`: the inhibition was found to be 2.7%.

On to `Cc1ccc(Nc2nc3ccccc3c3nncn23)c(Cl)c1`, for which the inhibition was -16.2%.

In the case of `CC1CCN(S(=O)(=O)c2ccc3c(ccn3CCC(=O)NCc3ccccc3F)c2)CC1`, the inhibition was -6.04%.

On to `Cc1csc(/C(=N/OC(=O)c2ccco2)C(N)=O)n1`, for which the inhibition is active: 41.7%.

In the case of `CCOC(=O)c1cc2occc2n1Cc1ccc(F)cc1`, the inhibition is active: 34.2%.

For the molecule `Nc1ccc(C(=O)N/N=C\c2ccc(OC(=O)c3ccccc3Cl)cc2)cc1`, the inhibition is active: 32.6%.

On to `Cc1ccc(C)c(S(=O)(=O)c2nnn3c2nc(NC2CCCCC2)c2sccc23)c1`, for which the inhibition was -6.69%.

For the molecule `CCc1ccc(-n2nc(CO)c(C(=O)NCCCc3ccccc3)n2)cc1`, the inhibition was -21.3%.

Consider `CCSc1ccccc1C(=O)Nc1ccc(-c2nc3ccccc3s2)c(O)c1`, for which the inhibition is -7.2%.

For the molecule `Cc1ccccc1Cn1c2ccccc2c2cnn(CC(=O)NCc3ccccn3)c(=O)c21`, the inhibition is -2.17%.

On to `Cc1ccc(C)c(N2CCN(C(=O)NCc3noc4ccc(C)cc34)CC2)c1`, for which the inhibition was determined as 2.48%.

In the case of `O=C(NCCc1ccccc1)C1CCC(CNS(=O)(=O)c2ccc(Cl)cc2)CC1` (configuration not stated), the inhibition was -4.76%.

Consider `Cc1ccccc1OCC(=O)Nc1cccc(C(=O)OCc2cc(=O)n3c(C)csc3n2)c1`, for which the inhibition turned out to be 9.35%.

In the case of `Cc1ccc(S(=O)(=O)Cc2ccc(C(=O)N3CCN(c4cccc(Cl)c4)CC3)o2)cc1`, the inhibition was -7.87%.

`O=C(Cn1c(=O)n(-c2ccc(Cl)cc2)c(=O)c2sc3ccccc3c21)NC1CCCC1`: the inhibition was -14%.

For `COC(=O)c1ccccc1NC(=O)c1cc2cc(C)ccc2n1C`, the inhibition was 6.94%.

Take `CCOc1ccc(-c2c(C)nn3c(C)c(C(=O)NCCc4ccc(Cl)cc4)cnc23)cc1OCC`: the inhibition is -20.8%.

In the case of `CCc1nc2cccnc2n1-c1ccc(CC(=O)Nc2cccc(C)c2C)cc1`, the inhibition is 4.81%.

For `c1ccc(CN2CCN(c3ncnc4c3cnn4-c3ccccc3)CC2)cc1`, the inhibition amounted to 8.98%.

In the case of `CCC1=Nc2cc(C(=O)NCCN(CC)CC)ccc2Sc2ccccc21`, the inhibition worked out at 8.62%.

Take `Cc1ccc(NC(=O)c2cc(S(=O)(=O)N3CCc4ccccc43)cn2C)c(Cl)c1`: the inhibition is 5.33%.

For `CCc1cccc(NC(=O)C2CCC(CNS(=O)(=O)c3ccc(Br)s3)CC2)c1` (configuration not stated), the inhibition was determined as 22.3%.

`O=C(Nc1cccc(F)c1)c1ccc2c(c1)N(Cc1ccccc1)C(=O)c1ccccc1S2(=O)=O`: the inhibition was -2.26%.

As to `O=C(COc1ccc(Cl)cc1)OCc1cc(=O)n2nc(C3CC3)sc2n1`, the inhibition is -18.2%.

With `COc1ccc(C(=O)NCC(c2ccc(N(C)C)cc2)N2CCc3ccccc32)cc1OC` (configuration not stated), the inhibition is -6.98%.

`COC(=O)c1ccccc1NC(=O)C1CCN(C(=O)N2CC(C)Oc3ccccc32)CC1` (configuration not stated): the inhibition is -4.69%.

Turning to `COc1ccc(-c2nc3ccccc3s2)cc1NC(=O)c1ccc(F)cc1`, the inhibition is -10.6%.

Consider `Cc1cccc(NC(c2ccccc2F)c2ccc3ccc(C)nc3c2O)n1` (configuration not stated), for which the inhibition turned out to be 10.2%.

For the molecule `Cc1ccc(OCC(=O)Nc2ccccc2OCc2cc(=O)n3ccccc3n2)cc1C`, the inhibition was found to be 3.55%.

For `O=C(Nc1nnc(S(=O)(=O)N2CCCCC2)s1)c1ccccc1Br`, the inhibition is -4.72%.

`Cc1ccc(NC(=O)c2ccc3c(O)c(S(=O)(=O)c4ccccc4)c(=O)[nH]c3c2)cc1Cl`: the inhibition stood at 19.7%.

As to `Cc1ccc(-c2nnc(Nc3ccc(C(=O)N(C)C)cc3)c3ccccc23)cc1S(=O)(=O)N(C)C`, the inhibition came out at 0.0097%.

Regarding `CCN(C(=O)CN1C(=O)COc2ccc(S(=O)(=O)N3CCOCC3)cc21)c1ccc(OC)cc1`, the inhibition is -10.8%.

Take `O=C(Cc1csc2nc(-c3ccc(F)cc3)cn12)NCc1ccccc1`: the inhibition is 19.7%.

Take `O=[N+]([O-])c1cc(-c2nc(-c3ccccc3)no2)ccc1NC1CCCCC1`: the inhibition is -0.985%.

Consider `C=Cc1ccc(Cn2c(C)c(CNCc3ccccc3C)c(C(=O)O)c2C)cc1`, for which the inhibition is 2.4%.

Regarding `COc1ccc(C2c3cc(OC)c(OC)cc3CC(=O)N2c2ccc(C)c(F)c2)cc1` (configuration not stated), the inhibition is 4.39%.

`COc1ccccc1CNC(=O)CCn1c(=O)c2cccn2c2cccnc21`: the inhibition was -21.4%.

For `CCCN1Cc2cccc(C(=O)Nc3cccc(C(=O)OCC)c3)c2C1=O`, the inhibition is -13.6%.

As to `CCC1Oc2ccc(Cl)cc2N(CC(=O)NCCc2ccc(Cl)cc2)C1=O` (configuration not stated), the inhibition came out at 0.321%.

As for `COCCNc1nc(NCc2cccc(Cl)c2)c2cnn(C)c2n1`, the inhibition is 7.26%.

`COc1ccc(/C=C/C(=O)Nc2ccc3nc(N4CCC(C)CC4)cc(C)c3c2)cc1`: the inhibition was -0.865%.

`CCc1cccc(C)c1NC(=O)Cn1nc(C)c2nn(-c3ccc(Cl)cc3)c(C)c2c1=O`: the inhibition is 10.1%.

With `CCN(c1ccccc1)S(=O)(=O)c1c(-c2ccc(C)cc2)csc1C(=O)OC`, the inhibition is 3.93%.

For `COc1ccc2c(c1)cc1c(=O)n(CC(=O)NC3CC3)nc(C)n12`, the inhibition is -0.0753%.

For the molecule `COc1ccccc1C(=O)Nc1ccc2oc(-c3cccc4c(Br)cccc34)nc2c1`, the inhibition is 3.56%.

Consider `CC1=C(c2ccc(C(C)C)cc2)S(=O)(=O)N=C1N1CCC(C(=O)NCCc2ccco2)CC1`, for which the inhibition is 24%.

As for `COc1cccc(-c2nc(SCC(=O)NC3CCCC3)c(-c3ccc(C)cc3)[nH]2)c1`, the inhibition came to 14%.

Consider `Cc1ccc(CNC(=O)c2ccc3nc(SCc4ccc(F)cc4)[nH]c3c2)cc1`, for which the inhibition amounted to 19.6%.

Regarding `CCN(CC)C(=O)CSc1nc(-c2ccc(C)cc2)nc2c1Cc1c(CO)cnc(C)c1O2`, the inhibition was determined as 5.36%.

On to `CCc1cccc(NC(=O)C(Cc2ccccc2)n2cccc2)c1` (configuration not stated), for which the inhibition stood at 1.63%.

For the molecule `CCOc1ccc(CNC(=O)c2ccc3c(c2)nc2n3CCOC2)cc1OC`, the inhibition was found to be 18.9%.

With `Cc1ccc(C(=O)Nc2c(C)nc3ccccn3c2=O)cc1C`, the inhibition stood at 4.28%.

As to `COc1ccc(N2CC(NC(=O)c3ccc(S(=O)(=O)N4CCCCC4)cc3)CC2=O)cc1` (configuration not stated), the inhibition was 1.45%.

Take `CCc1ccc(NC(=O)CN(c2cc(C)cc(C)c2)S(=O)(=O)c2c(C)[nH]c(=O)[nH]c2=O)cc1`: the inhibition was -0.519%.

`Cc1ccsc1C(C(=O)NCc1ccccc1)N(C(=O)c1csnn1)c1ccccc1` (configuration not stated): the inhibition is active: 33%.

As for `CCCOc1cccc(C(=O)Nc2cc(-c3ccccc3)no2)c1`, the inhibition was -2.22%.

On to `CC1=C(C(=O)Nc2ccc(F)cc2F)C2(CCN(C(C)C)CC2)OC1=O`, for which the inhibition was determined as 9.52%.

As for `CC(=O)Nc1ccccc1-c1nc2ccccc2n(CC(=O)Nc2cccc(C(F)(F)F)c2)c1=O`, the inhibition was 23.8%.

For the molecule `CC(=O)c1cccc(NC(=O)CSc2nc3ccccc3nc2Cc2ccc(F)cc2)c1`, the inhibition worked out at 11.7%.

As to `COc1ccc(/C=C/C(=O)Nc2nc(-c3cccs3)ns2)cc1OC`, the inhibition was -18.9%.

With `CCOc1cccc2cc(S(=O)(=O)c3ccccc3F)c(=O)oc12`, the inhibition was -6.16%.

Regarding `CCS(=O)(=O)N1CC(=O)N(c2ccc(Cl)cc2)C(C)(C(=O)NC2CCCCC2)C1` (configuration not stated), the inhibition was -8.82%.

Regarding `Cc1ccc(CO)cc1Nc1ncnc2onc(-c3ccc(F)cc3)c12`, the inhibition was -6.17%.

Turning to `Cc1cccc(NC(=O)CCS(=O)(=O)c2cc(Br)cc3c2N(C(=O)C2CC2)CC3)c1`, the inhibition stood at 7.47%.

On to `Cc1ccc(CNC(=O)CC2Oc3ccc(Cl)cc3NC2=O)cc1` (configuration not stated), for which the inhibition worked out at 1.06%.

`CCc1ccc(S(=O)(=O)Nc2cccc(-c3ccc(N4CCOCC4)nn3)c2)cc1`: the inhibition is 18.1%.

Regarding `CCn1c(CC(=O)Nc2ccccc2Cl)nnc1SCC(=O)NC1CCCC1`, the inhibition is active: 34.2%.

With `CC(C)(C)c1ccc(C(=O)NCC(c2ccc(Cl)cc2)N2CCOCC2)cc1` (configuration not stated), the inhibition is -12.2%.

Consider `CCOc1ccc(NS(=O)(=O)c2ccc3c4c(cccc24)C(=O)N3)cc1`, for which the inhibition is 6.03%.

With `Cc1ccc(CN(Cc2ccco2)C(=O)COc2ccc(C)c(C)c2)cc1`, the inhibition was -5.64%.

Regarding `COc1ccc(OC)c(S(=O)(=O)Nc2cccc(-c3ccc(N4CCCCC4)nn3)c2)c1`, the inhibition stood at 6.63%.

Turning to `CC(C)(C)c1ccc(C(=O)Nc2onc3c2CCCC3)cc1`, the inhibition came out at 9.36%.

In the case of `CCN(CC)c1ccc(/C=C/C(=O)C2C(=O)C=C(C)OC2=O)cc1` (configuration not stated), the inhibition was active: 50.3%.

For the molecule `Cc1sc(-c2cc3c([nH]c2=O)CC(c2ccccc2)CC3=O)nc1-c1ccc(Cl)cc1` (configuration not stated), the inhibition is -1.87%.

Consider `Cc1c(C(=O)N2CCOCC2)oc2c1-c1nn(CC(=O)NCc3cccc(Cl)c3)cc1CC2`, for which the inhibition is 17.1%.

As to `COc1ccc(CCNC(=S)NC2CCN(Cc3ccccc3)CC2)cc1OC`, the inhibition was active: 31.6%.

On to `CCCCS(=O)(=O)c1oc(-c2ccc(F)cc2)nc1S(=O)(=O)c1ccc(C)cc1`, for which the inhibition is -4.04%.

Consider `O=C(NCc1cccc(F)c1)c1ccc(NC(=O)c2nsc3ccccc23)cc1`, for which the inhibition was -14.7%.

As usually defined, the inhibition is the drop in the measured response relative to a control, in per cent.
